The campaign covered roughly 48,000 compounds. About 450 (0.94%) were called active. Roughly 19% stayed inconclusive and do not appear here. The call rests on the fitted dose curve; in most records, active means well fitted inhibition curve with a large enough effect; inconclusive means small, poorly fitted or top-dose-only effect; inactive means no such curve, though single readings can be large or run the other way. The list shows a part of the results.
Assay: Primary qHTS for Identification of Small Molecule Inhibitors of Huntingtin Promoter Activity; further: nearly all actives have a fitted effect of over 50% in size
Conditions: HEK293 HTT promoter firefly luciferase reporter (activity 0% = vehicle and -100% = no light), 24 h; series mostly up to 57.5 µM; activity change, negative = inhibition: at the top concentration
Procedure, shortened: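 HEK293 cells carrying firefly luciferase reporters were seeded at 2,500 per well in Opti-MEM and cultured for 24 h. They were then treated with compounds at up to 57.5 uM final for 24 h at 37 degrees C before Dual-Glo luminescence readout.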

Activity change, negative = inhibition, inactive:
CCc1ccc(NC(=O)C(=O)NCC(c2cccnc2)N2CCN(C)CC2)cc1 (stereo unspecified) -15.1%
COC(=O)c1ccc(Cl)cc1NC(=O)N(C)CCc1c(C)nn(C)c1C -15.8%
CCOc1ccc(NC(=O)Cn2cc(C(=O)c3ccc(C)c(C)c3)c(=O)c3cc(OC)c(OC)cc32)cc1 -13.7%
COc1cc(NC(=O)C(CC(C)C)NS(=O)(=O)c2ccc3c(c2)oc(=O)n3C)c(C(=O)O)cc1OC (stereo unspecified) -2.21%
O=c1cc(-c2ccc(F)cc2)nc(SCc2nc(-c3ccccc3Cl)no2)[nH]1 -0.233%
COc1cc(C(=O)Nc2ccc(NC(=O)c3ccc(Br)cc3)cc2)cc(OC)c1OC -14.9% [at 11.5 µM]
COc1ccc(CCn2c3c(c(=O)[nH]c2=O)C(NC(=O)c2ccccc2OC)(C(F)(F)F)C(=O)N3)cc1OC (stereo unspecified) -11.2%
Cc1oc(-c2cccc(Cl)c2)nc1CSc1nc2ncccc2[nH]1 -10.3%
O=C(COc1ccccc1Cl)Nc1ccc(Cl)c(-c2nc3ccccc3o2)c1 -15.5%
Cc1cccc(N2CCN(C(=O)c3cc4c(=O)n(C)c5ccccc5c4s3)CC2)c1C -2.96%
O=C(CCS(=O)(=O)c1cc2c3c(c1)CCN3C(=O)CC2)NCc1ccc(Cl)cc1 -32.1%
COc1ccc(/C=C/c2nc(C#N)c(NC3CCCCC3)o2)cc1OC 2.37%
COC(=O)CSc1ccc2nnc(CCNS(=O)(=O)c3ccc(C)cc3)n2n1 -0.0981%
COc1ccccc1CNC(=O)Cn1c(-c2cccs2)cc2cc(F)ccc21 -21.6%
CCOc1ccccc1NC(=O)Cn1nc2c3cc(F)ccc3n(Cc3cccc(C)c3)cc-2c1=O -8.92%
COc1cccc(NC(=O)CCc2nc(-c3cc(OC)c(OC)c(OC)c3)no2)c1 -26%
COc1ccc(CCNC(=O)c2cc(-c3ccc(Cl)cc3)on2)cc1OC 19.3%
CCOC(=O)c1ccc(NC(=O)c2cc3c(=O)n(C)c4ccccc4c3n2C)cc1 -6.67%
CCCCCNC(=O)N1CCC(CN(Cc2ccc(Cl)cc2)Cc2ccc([N+](=O)[O-])s2)C1 (stereo unspecified) -8.93%
Cc1ccc(C)c(NC(=O)C(=O)NCCc2csc(-c3cccc(F)c3)n2)c1 -10.8%
Cn1c(=O)cc(SCC(=O)Nc2cccc(C#N)c2)c2ccc(Cl)cc21 -14.3%
Cc1nc2ccccn2c(=O)c1NC(=O)c1ccccc1Cl 32.4%
COc1ccc(N2CCN(C(=O)Cc3noc4ccc(C)cc34)CC2)cc1 -16.6%
Cc1ccc(CN2CCc3nc(N4CCN(C)CC4)ncc3C2)cc1 -21.2%
COc1ccc(Nc2nnc(-c3ccc(C)c(S(=O)(=O)N4CCN(C)CC4)c3)c3ccccc23)cc1 -0.678%
Cc1nc2sccn2c(=O)c1S(=O)(=O)NCc1ccccc1 -9.26%
COC(=O)c1ccc(OC)c(CN2CCCN(Cc3ccc(C)cc3)S2(=O)=O)c1 -5.73%
COc1ccc(Cl)cc1C(=O)NCC(c1ccc(N(C)C)cc1)N1CCOCC1 (stereo unspecified) -6.2%
Cc1cccc(C)c1OCC(=O)N(Cc1ccc(Cl)cc1)CC1CCCO1 (stereo unspecified) -14.2%
O=C(O)CCNC(=O)c1ccccc1 3.35%
Cn1c(=O)c2c(nc(NCCc3ccccc3)n2Cc2ccc(Cl)c(Cl)c2)n(C)c1=O -8.05%
CC(C)c1nn2c(=O)cc(COC(=O)c3ccccc3NC(=O)c3cccs3)nc2s1 -30%
CCCN(Cc1cccs1)C(=O)Nc1ccccc1C -3.32%
CC1CCCN(c2csc3ccccc3c2=O)C1 (stereo unspecified) 67.2%
COc1ccc(S(=O)(=O)NCCc2cn3ccsc3n2)cc1OC 1.27%
CCOc1ccc(N(Cc2cc3cc(C)ccc3[nH]c2=O)C(=O)c2cccc(Cl)c2)cc1 -1.41%
O=C(N[C@H](CO)[C@H](O)c1ccc([N+](=O)[O-])cc1)C(Cl)Cl
Cc1ccc(C)c(CN2CCC(CNC(=O)Cn3ncc4c([nH]c5ccccc54)c3=O)CC2)c1 -2.02%
O=C(NCCCN1CCOCC1)c1ccc2c(c1)N(Cc1ccccc1)C(=O)c1ccccc1S2 -21.5%
NC/C=C/C(=O)O 10.5%
CCOc1ccc(NC(=O)NC(C)c2c(-n3cccc3)sc(C)c2C)cc1 (stereo unspecified) -26.5%
Cc1cccc(OCCCCn2nnc3sc4c(c3c2=O)CCC(C)C4)c1 (stereo unspecified) 12.4%
O=C(Cn1nc(N2CCN(c3ccccc3)CC2)ccc1=O)NCc1cccc(Cl)c1 -4.28%
CCOC(=O)CSc1nc2sc3c(c2c(=O)n1Cc1ccccc1)CC(C)CC3 (stereo unspecified) -1.55%
CCOc1ccccc1CNC(=O)CN1C(=O)CCCc2ccccc21 3.16%
O=C(COc1ccccc1)Nc1ccc(C(=O)OCc2cc(=O)n3nc(C4CC4)sc3n2)cc1 -9.29%
Cc1nc2nc(SCC(=O)NCc3ccccc3)nn2c(C)c1Cc1ccccc1Cl -27.6%
COc1ccc(-n2c(/C=C/c3cc(OC)c(OC)cc3OC)nc3cc4ccccc4cc3c2=O)cc1Cl -6%
Cc1ccc(OCCSc2nc3ccc(NC(=O)COc4ccc(F)cc4)cc3s2)cc1 -0.168%
CCN(CC)CCNC(=O)C1CCN(S(=O)(=O)c2c(C)noc2/C=C/c2ccccc2F)CC1 -19.7%
O=C(Cc1cccs1)NC1CC(=O)N(c2ccccc2)C1 (stereo unspecified) -12.9%
CCc1cccc(C)c1NC(=O)CN1CCCN(Cc2ccc(C)cc2)S1(=O)=O -23.8%
COc1ccc(-c2c(C)nn3c(C(F)(F)F)cc(-c4ccc(Br)cc4)nc23)cc1 -38.3%
O=C(CN1CCCN(Cc2ccccc2Cl)S1(=O)=O)Nc1ccc2c(c1)OCCO2 -1.24%
Cc1cc(C)n2c(Nc3c(C)cccc3C)c(-c3ccsc3)nc2n1 -11.1%
CNC1[C@H](O)C(O[C@@H]2C(O)C(O[C@H]3O[C@H]([C@@H](C)NC)CC[C@H]3N)[C@@H](N)C[C@H]2N)OC[C@]1(C)O (stereo partly specified) -0.651%
CCN(C(=O)COc1cc(=O)n(C)c2ccccc12)c1cccc(C(F)(F)F)c1 -20.9%
Cc1ccc2c(c1)c1c3n2CCNC3CCC1 (stereo unspecified) 1.17%
Cc1ccccc1CN1CCc2nc(Nc3ccc4c(c3)OCCO4)ncc2C1 -26%
CCOc1ccc(C(=O)Nc2ccc(-c3nc4cc(CC)ccc4o3)cc2)cc1 -0.478%
O=C(c1cc2c(=O)[nH]c3ccccc3c2s1)N1CCN(c2ccc(F)cc2)CC1 -10.3%
CC(NC(=O)CCn1c(=O)c2cccn2c2ccc(F)cc21)c1ccccc1 (stereo unspecified) -2.21%
COc1cccc(NC(=O)c2oc3ccccc3c2NC(=O)C23CC4CC(CC(C4)C2)C3)c1 -15.4%
COc1ccc(CN2COc3ccc4c(C)cc(=O)oc4c3C2)cc1 -11%
COc1cccc2c1Oc1nc(-c3ccccc3)nc(SCC(=O)N3CCCCC3)c1C2 -10.8%
COc1ccc(NC(=O)C(=O)NCCc2csc(-c3ccc(Cl)cc3)n2)cc1 -11.8%
O=C(CCn1c(=O)c2cccn2c2ccc(F)cc21)NCCc1ccccc1Cl -7.39%
COC(=O)c1ccc(NC(=O)Nc2nnc(N(C)C3CCCCC3)s2)cc1 9.19%
CCCOc1ccc(Nc2nc(SC)ncc2C(=O)OCC)cc1 -19.8%
Cc1coc2c(C)c3oc(=O)c(CC(=O)N4CCCCC4)c(C)c3cc12 -4.57%
COc1ccc(-c2nc3nc(C)cc(Nc4ccc(C(C)=O)cc4)n3n2)cc1 -11.2%
O=S(=O)(c1ccc(Br)cc1)c1nc(-c2ccco2)oc1SCc1ccccc1Cl -28%
Cc1ccc(CCNC(=O)c2nn(C)c3c2CSc2ccccc2-3)cc1 -17.9%
CCCCOc1ccc(CNC(=O)CN2CCSc3ccccc32)cc1 -35.6%
COc1cccc(CNC(=O)CCn2c(=O)c3cccn3c3ccc(F)cc32)c1OC -13.3%
COc1ccc(-n2nc(C(=O)N(C)c3cccc(C(F)(F)F)c3)c3c4ccccc4n(C)c3c2=O)cc1 -7.28%
NC(=O)c1cccc(-c2cc(Nc3ccc(OC(F)(F)F)cc3)ncn2)c1 -13.4%
CCC(C(=O)N1CCN(c2cccc(C)c2C)CC1)n1nc(C)c2sc3ccccc3c2c1=O (stereo unspecified) -6.7%
CCCNC(=O)C1CCC(Cn2c(=O)c3sccc3n(Cc3cccc(OC)c3)c2=O)CC1 (stereo unspecified) -11.8%
CCn1nnc2cc(C(=O)Nc3cccc(Cl)c3)ccc21 19.2%
Cc1nc2nc(NC(=O)c3cccc(Cl)c3)[nH]n2c(=O)c1Cc1ccccc1 -10.6%
CCOc1ccc(-n2c(-c3ccc(C)cc3)nc3c(cnn3-c3ccccc3)c2=O)cc1 -18.5% [at 11.5 µM]
Cc1ccc(NC(=O)CCn2c(=O)c3cccn3c3ccccc32)c(Cl)c1 -23.1%
COc1ccc(CCNC(=O)CCc2c(C)nc3c(c(C)nn3-c3ccc(C)c(C)c3)c2C)c(OC)c1OC -9.75%
CCOC(=O)c1c(S(=O)(=O)N2CCC(C(=O)Nc3ccccc3OC)CC2)c(C)n(CC)c1C -7.14%
COc1ccc(CCNC(=O)Cn2cc(C(=O)c3ccccc3)c(=O)c3ccc(C)nc32)cc1OC -4.77%
COc1cccc(N2CC(NC(=O)Cc3cccs3)CC2=O)c1 (stereo unspecified) -12%
CCOc1ccc(OCC)c(Nc2nc3ccccc3c3nnc(C)n23)c1 17.7%
Cc1ccc2c(c1)c1c(c(=O)n(-c3ccccc3)c(=O)n1CC(=O)N1CCCC1)n2C -15.2%
CCn1cc(C(=O)NCCc2ccc(C)cc2)c(=O)c2cc(S(=O)(=O)N(C)C)ccc21 -6.29%
Cc1ccccc1C(=O)Nc1ccccc1C(=O)OCc1cc(=O)n2ccsc2n1 -5.64%
CN1C(=O)CC(=O)N(C)c2cc(S(=O)(=O)N(C)Cc3ccccc3)ccc21 -18.7%
CCCCN(CCCC)CCNC(=O)c1cn(C)c2ccc(S(=O)(=O)N3CCOCC3)cc2c1=O -9.56% [at 11.5 µM]
COc1ccc2c(c1)c1c(c(=O)n(-c3ccc(OC)c(OC)c3)c(=O)n1Cc1ccccc1C)n2C 4.05%
Cc1ccc(-n2ncc(C(=O)NCCN3CCN(C)CC3)c2C2CCN(C(=O)OC(C)(C)C)CC2)c(C)c1 -10.2%
CN(Cc1ccccc1)C(=O)CN1C(=O)CSc2ccc(S(=O)(=O)N3CCOCC3)cc21 -8.85%
